Measured values as given in the supplement of paper PMC10126150.
Values marked as one replicate rest on one cluster of the flow cell; about a third of the high ones do not repeat.

system: ATP; assay: switch fluorescence ratio, 500 uM ATP over buffer (Cy3 cluster intensity, sum of 5 cycles each) (fold (ratio)); higher = stronger signal-on switching upon ATP binding; sequences stand for … in TCGTCGGCAGCGTCAGATGTGTATAAGAGACAGTTTTTTTTTTTTTTTTTTTTTTTTT…TC; details: aptamer strand: ATP DNA aptamer (quencher-CACCTGGGGGAGTATTGCGGAGGAAGG + anchor), 100 nM annealed; ATP concentration: 500 uM; one replicate
In short: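 Per cluster, summed Cy3 intensity from the target cycles was divided by that from the buffer cycles to give the fluorescence ratio, then averaged per switch-domain sequence. Clusters outside 100-1000 RFU were excluded. The Cy3-labelled switching-strand clusters, on a modified Illumina MiSeq flow-cell, were annealed to 100 nM quencher-labelled ATP aptamer and imaged in selection buffer, then after 15 min with 500 uM ATP at 22 °C, for five cycles with NaOH stripping and re-annealing between them.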
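Also: ATP exposure 15 min at 22 °C before imaging.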

Sequence | switch fluorescence ratio
TAACAACATA | 1.06
TAACACATAT | 1.07
TAACACGACA | 1.19
TAACATGG | 0.973
TAACATGGG | 1.02
TAACCACAAC | 1.07
TAACCACTCG | 0.99
TAACCGCCTG | 1.11
TAACCTGAGC | 1.3
TAACCTGTT | 1.23
TAACCTTTGC | 1.31
TAACCTTTTT | 0.985
TAACGAGTAT | 1.02
TAACGATACG | 1.2
TAACGCAGTA | 0.998
TAACGGCCCA | 1.01
TAACGGCTTT | 0.994
TAACGTCGGA | 0.946
TAACGTTTGA | 1.03
TAACTAGGTG | 1.51
TAACTGGGAT | 1.01
TAACTGGTGA | 1.07
TAACTTCTTC | 1.01
TAAGAAAGAT | 1.02
TAAGAACGGT | 0.965
TAAGAAGGAG | 0.96

Sequence | switch fluorescence ratio
TAAGAAGTGT | 1.05
TAAGAATCGT | 1.02
TAAGAATGAT | 0.987
TAAGAATTGT | 1.01
TAAGACCTTG | 1.02
TAAGACGCGG | 1.04
TAAGAGAGT | 1.01
TAAGAGCAAG | 1.1
TAAGAGCAGT | 1.04
TAAGAGCGG | 0.963
TAAGAGCTCG | 1.42
TAAGAGTTGA | 0.972
TAAGCACAGG | 1.33
TAAGCCCACT | 0.994
TAAGCCTCGA | 1.03
TAAGCGAAGG | 1.04
TAAGCGAATA | 1.09
TAAGCGACCT | 1.31
TAAGCGATTG | 0.991
TAAGGACCAG | 1.01
TAAGGATTAA | 0.982
TAAGGGACCT | 0.994
TAAGGGGCGC | 0.992
TAAGGGTAGC | 1.06
TAAGGGTCGA | 1.01
TAAGGTACTA | 1.02

Sequence | switch fluorescence ratio
TAAGGTCAGG | 1.01
TAAGGTCCGT | 1.02
TAAGGTTGAT | 0.98
TAAGGTTTCT | 1.03
TAAGTAAGCT | 1.07
TAAGTAATCG | 1.08
TAAGTACAAT | 1.26
TAAGTAGATC | 0.941
TAAGTAGGTA | 0.956
TAAGTATCAC | 0.983
TAAGTCTAGG | 1
TAAGTGCAGG | 1.03
TAAGTGCCTA | 0.983
TAAGTGTATC | 0.973
TAAGTGTTGT | 1.04
TAAGTTAAAT | 1.01
TAAGTTATTG | 1
TAAGTTCATA | 1.05
TAAGTTTAAT | 0.967
TAATAAGGTT | 0.999
TAATAAGTGT | 0.976
TAATAGAGAC | 0.977
TAATAGAGTC | 0.997
TAATAGAGTG | 0.978
TAATAGTCT | 0.985
